# Measured values from PubChem BioAssay AID686979 (National Center for Advancing Translational Sciences (NCATS), 2013).
# About 50,000 (12%) of roughly 420,000 compounds were called active. Inconclusive results, whose numbers are uncertain, are shown with a selection of clear calls. The call rests on the fitted dose curve; in most records, active means well fitted inhibition curve with a large enough effect; inconclusive means small, poorly fitted or top-dose-only effect; inactive means flat fitted curve, though single readings scatter. Potencies of inconclusive entries are left out as doubtful fits.
# Experiment: qHTS for Inhibitors of human tyrosyl-DNA phosphodiesterase 1 (TDP1): qHTS in cells in presence of CPT; further: nearly all actives have a fitted effect of over 55% in size
# Details: chicken DT40 Tdp1-/-;hTDP1 cells + 20 nM CPT, ATP luminescence, 48 h; activity change, negative = growth inhibition: at 46.2 µM (top of the series) unless noted
# Summary of the method: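 Cell growth measured by CellTiter-Glo luminescence after a minimum 48 h, 37 C compound exposure with 20 nM CPT in Tdp1-knockout DT40 cells stably expressing hTDP1, seeded 400/well; qHTS titration format.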
# On the % scale 0 is the no-effect control and ±100 the full control effect; potency means the concentration at half of the fitted maximal effect; tags describe the fitted curve by direction and shape.
Compound,Potency,"activity change, negative = growth inhibition"
CCOC(=O)C(=CNc1ccc(-c2ccco2)c(Cl)c1)C(=O)OCC,active: 20.6 µM,
CCOc1ccc(S(=O)(=O)N2CCOCC2)cc1NC(=O)CN1C(=O)NC2(CCCC2)C1=O,"inconclusive [inhibitor, full curve, poor fit]",
COC(=O)C(C(C)=O)C1=C/C(=N\S(=O)(=O)c2ccc(C)cc2)c2ccccc2C1=O (stereo not given),active: 3.55 µM,
O=C(CC1C(=O)N(c2ccccc2)C(=S)N1c1ccccc1)c1ccccc1 (stereo not given),"inconclusive [inhibitor, single point]",
Cc1onc(-c2cccc(Cl)c2Cl)c1C(=O)O/N=C(\N)c1ccc([N+](=O)[O-])o1,"inconclusive [inhibitor, single point]",
COc1ccccc1-c1cc(C(F)(F)F)nc(S(=O)(=O)CCCC(=O)Nc2cccnc2Cl)n1,active: 2.06 µM,
CCN1C(=O)c2ccccc2S(=O)c2ccc(C(=O)N3CCCC3)cc21 (stereo not given),,inactive: -10.2%
COC(=O)c1ccc(C(=O)OC)c(NC(=O)N2c3ccccc3Sc3ccccc32)c1,"inconclusive [inhibitor, single point]",
Cc1cccc(C)c1NC(=O)CCCSc1nc2ccccc2s1,"inconclusive [inhibitor, single point]",
CC(Oc1cccc(Cl)c1)C(=O)Nc1ccc(S(=O)(=O)N(C)C2CCN(C)CC2)cc1 (stereo not given),"inconclusive [inhibitor, single point]",
c1ccc(-c2ccccc2OCCN2CCCC2)cc1,,inactive: 6.61%
COc1ccc(C2CC(=O)c3c([nH]c(C(=O)OC4CCC(C)CC4)c3C)C2)cc1OC (stereo not given),"inconclusive [inhibitor, full curve, poor fit]",
O=S(=O)(Nc1cccc2cn[nH]c12)c1ccc(F)cc1,"inconclusive [inhibitor, partial curve]",
Cc1ccc(S(=O)(=O)CCSc2cccc(C(=O)O)c2)cc1,,inactive: 15.1%
Cc1ccc2cccc(NC(=O)c3cccc4ccccc34)c2n1,"inconclusive [inhibitor, single point]",
COc1cc(CNCc2ccc(Br)cc2)cc(OC)c1,"inconclusive [inhibitor, partial curve]",
O=C(OCc1cc(=O)n2ccsc2n1)C1(c2ccc(Cl)cc2)CC1,"inconclusive [inhibitor, single point]",
CN1CCN(c2ncnc3c2cnn3-c2ccc(Cl)cc2)CC1,"inconclusive [inhibitor, single point]",
CCN(CC)c1ccc(-c2nc(-c3ccncc3)no2)cc1[N+](=O)[O-],active: 13 µM,
CC1=NN(C(=O)Cc2ccc([N+](=O)[O-])cc2)C(O)(c2ccccc2)C1 (stereo not given),active: 4.11 µM,
COc1cccc(NC(=O)C2CCCN2C(=O)NC2CCCCC2)c1 (stereo not given),,inactive: 9.76%
O=S1(=O)CC(N2CCC(Cc3ccccc3)CC2)CN1C1CCCC1 (stereo not given),"inconclusive [inhibitor, single point]",
COc1ccc(/C=C/c2nc(N)nc(-c3ccccc3O)n2)cc1OC,"inconclusive [inhibitor, single point]",
O=c1c(Cl)c(N2CCCCC2)cnn1-c1nc2ccccc2[nH]1,"inconclusive [inhibitor, single point]",

Compound,Potency,"activity change, negative = growth inhibition"
Cc1sc(NC(=O)c2cccs2)nc1-c1ccccc1,active: 23.1 µM,
O=C(N/N=C/c1cccs1)C1COc2ccccc2O1 (stereo not given),"inconclusive [inhibitor, single point]",
O=C(OCC(=O)N1CCc2ccccc21)c1c2c(nc3ccccc13)CCCC2,active: 16.4 µM,
COCCNc1nnc(SCC(=O)NNC(=O)c2ccccc2)s1,"inconclusive [inhibitor, partial curve, poor fit]",
CC1(C)N=C(SCC(=O)Nc2ccc(Cl)cc2)C(c2ccccc2)=N1,"inconclusive [inhibitor, partial curve, poor fit]",
C/C=C(\C)C(=O)NCCN1C2=NC[C@H](C)N2C[C@@H]1Cc1ccc(OC)cc1,,inactive: -20.4%
CCC(O)(CC)C(=O)NN(C(=O)CCl)c1ccccc1,active: 13 µM,
CN1C(=O)Cc2cc(S(=O)(=O)NCc3c(F)cccc3Cl)ccc21,,inconclusive: 7.48% [inhibitor]
Cc1sc2nc(SCC(=O)N(CCO)CCO)n(C3CCCCC3)c(=O)c2c1C,,inactive: -9.12%
Cc1ccc(NC(=O)CSc2nc(=O)n(Cc3ccncc3)c3c2CCC3)c(C)c1,,inactive: 5.35%
Cc1noc(C)c1COc1ccc(C(=O)N2CCN(S(=O)(=O)c3ccccc3)CC2)cc1,"inconclusive [inhibitor, single point]",
CCS(=O)(=O)Nc1cc(-c2cn3ccc(C)cc3n2)ccc1C,"inconclusive [inhibitor, partial curve]",
CCOc1ccccc1C(=O)N(Cc1ccc(N(C)C)cc1)CC1CCCO1 (stereo not given),"inconclusive [inhibitor, single point]",
CC(C)(C)OC(=O)N1CCC(c2c(C(=O)N3CCc4ccccc4C3)cnn2-c2ccc(Cl)cc2)CC1,"inconclusive [inhibitor, single point]",
CCCn1c(SCC(=O)N2CCCC(C)C2)nnc1-c1cccnc1 (stereo not given),,inactive: -10.1%
COc1ccc(NC(=O)Nc2nc(C(N)C3CCCCC3)cs2)cc1 (stereo not given),"inconclusive [inhibitor, single point]",
Cn1c(SCC(=O)c2ccc3c(c2)NC(=O)CO3)nc2ccccc21,"inconclusive [inhibitor, full curve, poor fit]",
Cc1ccc(-c2nnn(CC(=O)N(c3cnc4ccccc4c3)C(C(=O)NC3CCCC3)c3ccncc3)n2)o1 (stereo not given),"inconclusive [inhibitor, single point]",
O=C(O)/C=C/C(=O)NC1CCCCC1,,inactive: -3.69%
N/C(=N\O)c1cn(Cc2ccccc2Cl)c2ccccc12,"inconclusive [inhibitor, single point]",
O=C(NCc1ccccc1)C1=C[C@@H](C2CC2)C[C@@H](OCc2ccc(CO)cc2)O1,"inconclusive [inhibitor, single point]",
C=CCCC(=O)Nc1ccc(Br)cn1,"inconclusive [inhibitor, single point]",
Cc1cc(C)cc(C(=O)N2CC(=O)Nc3ccc(C)cc3C2c2ccccc2)c1 (stereo not given),"inconclusive [inhibitor, single point]",
Cc1c(Cl)cccc1N(CC(=O)NC(C)c1ccccc1)S(C)(=O)=O (stereo not given),,inactive: 13.8%

Compound,Potency,"activity change, negative = growth inhibition"
CSc1ccccc1OCc1cc(C(=O)N(C)Cc2nonc2C)no1,"inconclusive [inhibitor, partial curve]",
c1csc(CNc2nc(-c3ccc4c(c3)OCO4)nc3ccccc23)c1,"inconclusive [inhibitor, single point]",
CCCNc1c(N)n(-c2ccccc2)c(=O)[nH]c1=O,"inconclusive [inhibitor, single point]",
O=C(c1cc(-c2ccccc2)on1)N1CCOc2ccc(CN3CCN(c4ccccn4)CC3)cc2C1,,inactive: 8.41% [at 9.04 µM]
CCOC(=O)c1cccc(NC(=O)CS(=O)(=O)Cc2nc(-c3cccc(OC)c3)oc2C)c1,"inconclusive [inhibitor, partial curve]",
CC(=O)c1ccc(OCc2nnn(CC(=O)NS(=O)(=O)Cc3ccccc3)c2-c2ccccc2)cc1,,inconclusive: -39.8% [inhibitor]
CC(=O)Nc1ccc(/C=C/c2ccncc2)cc1,"inconclusive [inhibitor, single point]",
COc1ccccc1NC(=S)NC(=O)CC(C)C,"inconclusive [inhibitor, single point]",
O=C(CN(c1ccccc1Cl)S(=O)(=O)c1ccccc1)NC1CC2CCC1C2 (stereo not given),"inconclusive [inhibitor, single point]",
S=c1[nH]nc(CCc2ccccc2)n1-c1ccc(Cl)cc1,,inconclusive: -30.6% [inhibitor]
CC(C)CN1C(=O)CSCC1(C)C(=O)Nc1ccc2c(c1)OCCO2 (stereo not given),,inactive: -24.4%
Cc1ccc(S(=O)(=O)N2CCC(C(=O)N3CCN(Cc4ccccc4)CC3)CC2)cc1,active: 20.6 µM,
COc1ccccc1NC(=O)CSc1ncc2c(n1)-c1ccccc1N(Cc1ccccc1C)S2(=O)=O,"inconclusive [inhibitor, single point]",
Cn1cc(CN2CCC(n3nccc3NC(=O)CCOc3ccccc3)CC2)cn1,,inactive: 0.202%
O=C(CCNC(=O)N1CC(=O)Nc2ccccc21)NCc1cccc(C(F)(F)F)c1,,inactive: -6.38%
Cc1ccc(CN(C(=O)c2ccc(C(C)(C)C)cc2)c2ccccn2)o1,"inconclusive [inhibitor, partial curve, poor fit]",
Nc1c(Cl)cnn(-c2ccccc2)c1=O,,inactive: 7%
COc1ccc(C(=O)Cn2c(NCCCO)nc3ccccc32)cc1OC,"inconclusive [inhibitor, single point]",
COc1ccccc1NC(=O)c1ccc(C)c(S(=O)(=O)N2CCCCC2)c1,"inconclusive [inhibitor, partial curve, poor fit]",
CCn1c2ccccc2c2cc(/C=N/n3c(C)nnc3C)ccc21,"inconclusive [inhibitor, single point]",
Cc1c(Cl)cccc1NC(=O)NCc1cccnc1,,inactive: 1.42%
C=C1C=C(C(F)F)n2ncc(C(=O)Nc3ccc(N(CC)CC)cc3)c2N1,,inactive: 9.74%
